From publication PMC4336329 (PLoS ONE, 2015) come the findings set out here.

Hit rate of the full screen: of about 310,000 compounds, about 14,000 (4.5%) showed an effect of 50% or more. The effect is printed as a negative number. The list shows a part of the results.
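Also: peak tail current of the secondary pulse compared with the same well before compound.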

The target in this assay is human ether-à-go-go-related gene (hERG) potassium channel (human, UniProt Q12809). In words: primary screen, population patch clamp on CHO cells stably expressing hERG.
Chain of human ether-à-go-go-related gene (hERG) potassium channel (Q12809 whole entry, looked up): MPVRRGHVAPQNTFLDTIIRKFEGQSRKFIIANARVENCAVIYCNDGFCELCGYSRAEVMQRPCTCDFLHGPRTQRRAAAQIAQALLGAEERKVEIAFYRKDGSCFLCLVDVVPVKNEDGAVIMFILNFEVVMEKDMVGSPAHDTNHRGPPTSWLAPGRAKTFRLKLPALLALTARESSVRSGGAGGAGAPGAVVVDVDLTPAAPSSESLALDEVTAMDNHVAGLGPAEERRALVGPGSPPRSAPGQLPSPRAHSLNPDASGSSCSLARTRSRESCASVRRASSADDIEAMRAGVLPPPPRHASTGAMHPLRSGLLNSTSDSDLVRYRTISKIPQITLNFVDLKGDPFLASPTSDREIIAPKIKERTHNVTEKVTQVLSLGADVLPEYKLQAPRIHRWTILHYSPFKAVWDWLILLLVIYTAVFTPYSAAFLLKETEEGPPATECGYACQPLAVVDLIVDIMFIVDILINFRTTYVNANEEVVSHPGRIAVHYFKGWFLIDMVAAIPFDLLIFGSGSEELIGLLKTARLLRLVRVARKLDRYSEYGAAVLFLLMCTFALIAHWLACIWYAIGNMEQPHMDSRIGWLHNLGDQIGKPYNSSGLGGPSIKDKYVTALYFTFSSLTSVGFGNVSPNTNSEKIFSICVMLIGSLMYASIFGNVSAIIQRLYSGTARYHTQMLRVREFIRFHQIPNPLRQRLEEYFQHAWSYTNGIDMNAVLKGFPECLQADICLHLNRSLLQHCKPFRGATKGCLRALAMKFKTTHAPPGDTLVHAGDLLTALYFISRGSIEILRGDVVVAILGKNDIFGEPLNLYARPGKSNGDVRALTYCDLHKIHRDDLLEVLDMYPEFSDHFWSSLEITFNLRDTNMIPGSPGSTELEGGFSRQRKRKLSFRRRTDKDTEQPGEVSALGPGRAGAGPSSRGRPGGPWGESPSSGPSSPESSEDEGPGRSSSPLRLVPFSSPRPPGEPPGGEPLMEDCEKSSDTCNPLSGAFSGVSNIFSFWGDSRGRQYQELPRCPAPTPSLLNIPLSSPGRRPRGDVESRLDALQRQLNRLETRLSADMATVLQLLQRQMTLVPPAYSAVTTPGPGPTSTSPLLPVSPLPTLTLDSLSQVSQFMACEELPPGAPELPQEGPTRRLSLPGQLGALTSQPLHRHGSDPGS
`CCn1cc(C(=O)O)c(=O)c2cnc(N3CCN(C(=S)Nc4ccccc4C(F)(F)F)CC3)nc21`: the “hERG current change (%, negative = inhibition) at 10uM” value stood at 6.26%. In the case of `CCc1cccc(C)c1N=Cc1c(O)c2ccccc2oc1=O`, the “hERG current change (%, negative = inhibition) at 10uM” value stood at 8.06%. As to `CC(=O)Nc1ccc(-c2nnc(SCc3ccc(C)cc3)n2C)cc1`, the “hERG current change (%, negative = inhibition) at 10uM” value is given as -13.1%. With `O=C(CCNS(=O)(=O)c1ccccc1F)N1CCN(C(c2ccccc2)c2ccccc2)CC1`, the “hERG current change (%, negative = inhibition) at 10uM” value is -13.4%. Consider `O=C(NC1CCSc2ccccc21)c1cc(S(=O)(=O)N2CCOCC2)ccc1F` (stereo not shown), for which the “hERG current change (%, negative = inhibition) at 10uM” value is on record as -1.04%.

With `Cc1ccccc1N1CCN(C2CCCN(C(=O)CCn3cnnn3)C2)CC1` (stereo not shown), the “hERG current change (%, negative = inhibition) at 10uM” value is recorded as -3.95%. On to `CCOc1cc(/C=C2\NC(=O)NC2=O)cc([N+](=O)[O-])c1O`, for which the “hERG current change (%, negative = inhibition) at 10uM” value was -5.87%. In the case of `O=S(=O)(c1ccc(NC(=S)NN=C(Cc2ccccc2)Cc2ccccc2)cc1)N1CCOCC1` it was 24.6%. Consider `Cc1ccnc(NS(=O)(=O)c2ccc(NC(=O)Cc3ccc(Cl)cc3)cc2)n1`, for which the “hERG current change (%, negative = inhibition) at 10uM” value was 14.3%. In the case of `COC(=O)c1ccc(S(=O)(=O)NCCSc2nnc3c4ccccc4n(C)c3n2)cc1` it was -8.59%; in that of `CCN(CC)S(=O)(=O)c1ccc2c(c1)nc(CCC(=O)OCC(=O)Nc1c(F)cccc1F)n2C`, -34.6%. For `CCC(C(=O)Nc1cccnc1)n1c(=O)[nH]c2ccccc2c1=O` (stereo not shown), the “hERG current change (%, negative = inhibition) at 10uM” value is on record as 10%.

With `Cc1cc(NCCCN2CCOCC2)n2nc(C)c(-c3ccc(F)cc3)c2n1`, the “hERG current change (%, negative = inhibition) at 10uM” value is given as -31.1%.

In the case of `COc1cc(O)c(C(CC(=O)N2CCCC(C)C2)c2ccc3c(c2)OCO3)c(OC)c1` (stereo not shown), the “hERG current change (%, negative = inhibition) at 10uM” value was -5.66%. With `CCCC(=O)N(CCN1CCOCC1)c1nc2c(C)cccc2s1.Cl`, the “hERG current change (%, negative = inhibition) at 10uM” value is reported as -7.14%.

Consider `O=C(CC1C(=O)NCCN1Cc1cccc(Oc2ccccc2)c1)NCCn1cccn1` (stereo not shown), for which the “hERG current change (%, negative = inhibition) at 10uM” value is recorded as -26.9%. With `COc1ccc(CC(=O)Nc2cccc(C(=O)NN3C(=O)c4ccccc4C3=O)c2C)cc1`, the “hERG current change (%, negative = inhibition) at 10uM” value is -3.29%.

Turning to `O=C(CN1C(=O)C2CC=CCC2C1=O)Nc1ccc(S(=O)(=O)N2CCOCC2)cc1` (stereo not shown), the “hERG current change (%, negative = inhibition) at 10uM” value came out at 10.3%. Then `CC(C)NC(=O)C1CCN(C2CCN(Cc3ccc4cccc(F)c4n3)CC2)CC1`, with -38.6%; and `CC(=O)c1sc(NC(=O)CCN2C(=O)C3CC=CCC3C2=O)nc1-c1ccccc1` (stereo not shown), with -33.2%; and `COc1cc(NC(=O)CN(c2cc(C)cc(C)c2)S(=O)(=O)c2c(C)noc2C)cc(OC)c1`, with -1.8%. Take `Cc1ccc(NC2=NCCCCC2)cc1.Cl`: the “hERG current change (%, negative = inhibition) at 10uM” value is 4.84%. Turning to `Cc1ccccc1NS(=O)(=O)c1cc2c(cc1C)N(C)CCO2`, the “hERG current change (%, negative = inhibition) at 10uM” value was 7.78%. For the compound `CSc1nc2ccccc2n1CC(=O)N1CCCCC1`, the “hERG current change (%, negative = inhibition) at 10uM” value came out at 4.48%. In the case of `CCC(NS(=O)(=O)c1ccc2c(c1)NC(=O)C(C)C(=O)N2)c1cccs1` (stereo not shown) it was 6.04%; in that of `CCOc1ccccc1N1CCN(c2ncnc3scc(-c4ccc(OC)cc4)c23)CC1`, 15.9%; in that of `CCOC(=O)c1c(C)[nH]c(C(=O)OCC(=O)N(C)c2c(N)n(Cc3ccccc3)c(=O)[nH]c2=O)c1C`, 4.34%. Then `COc1ccccc1NC(=O)CSc1nnc(-c2ccoc2C)n1C`, with -1.59%; and `Cc1c(C)c(C)c2[nH]c(-c3ccc4c(c3)OCO4)nc2c1C`, with 16.1%.

With `CC(C)c1nnc(NC(=O)c2ccc(N3C(=O)CCC3=O)cc2)s1`, the “hERG current change (%, negative = inhibition) at 10uM” value came out at 13.3%. As to `c1ccc(Cc2noc(CN3CCN(CCOc4ccccc4)CC3)n2)cc1`, the “hERG current change (%, negative = inhibition) at 10uM” value is -40.9%.

Turning to `CCCNC(=O)C1CCC(CNS(=O)(=O)c2ccc3c(c2)N(C(C)=O)CCO3)CC1` (stereo not shown), the “hERG current change (%, negative = inhibition) at 10uM” value is recorded as 15.7%. For `CC(C)CCNC(=O)C1c2ccccc2Oc2ccccc21`, the “hERG current change (%, negative = inhibition) at 10uM” value is -26.5%. In the case of `O=C(O)C1=C[C@H](c2csc3ccccc23)C[C@H](OCc2ccc(CO)cc2)O1`, the “hERG current change (%, negative = inhibition) at 10uM” value is reported as 8.95%. Turning to `CCCCC(C(=O)OCC)C(N)Cc1ccc(F)cc1.Cl` (stereo not shown), the “hERG current change (%, negative = inhibition) at 10uM” value was -2.12%. For the compound `COc1ccc(CNC(=S)NC2CCCC2)cc1`, the “hERG current change (%, negative = inhibition) at 10uM” value was determined as 12.5%. On to `CCn1nc(C)c(/C=N/NC(=O)c2ccc3c(c2)c(C)c(C)n3Cc2ccccc2)c1C`, for which the “hERG current change (%, negative = inhibition) at 10uM” value is given as -1.94%.

Take `COc1cc(CNc2ccc(CNc3ncn[nH]3)cc2)ccc1OCC(=O)NC(C)(C)C`: the “hERG current change (%, negative = inhibition) at 10uM” value was -0.0129%. With `CCc1n[nH]c2c1/C(=N\O)CC(C)(C)C2`, the “hERG current change (%, negative = inhibition) at 10uM” value is listed as 11.5%. As for `CCCCOc1ccccc1NC(=O)C=C(C)C`, the “hERG current change (%, negative = inhibition) at 10uM” value is reported as -1.61%. In the case of `CC(=O)Cc1nsc(NC(=O)c2cn(-c3ccccc3)nc2-c2ccc(Br)cc2)n1`, the “hERG current change (%, negative = inhibition) at 10uM” value was found to be 2.86%.

Turning to `CCOc1ccc(N(C(=O)CNC(=O)c2ccco2)C(C(=O)NCC2CCCO2)c2ccccc2)cc1` (stereo not shown), the “hERG current change (%, negative = inhibition) at 10uM” value is 4.03%. Consider `COc1cc(C(=S)N2CCOCC2)cc(OC)c1OC(=O)Cc1ccc(F)cc1`, for which the “hERG current change (%, negative = inhibition) at 10uM” value is -5.55%. For `CCOC(=O)C1(CCCc2ccccc2)CCN(Cc2cnn(C)c2)CC1`, the “hERG current change (%, negative = inhibition) at 10uM” value was -71.6%. With `Cc1csc(NC(=O)CCNC(=O)c2ccccc2Cl)n1`, the “hERG current change (%, negative = inhibition) at 10uM” value was found to be 5.34%.

`COC(=O)C1=C(Nc2ccccc2NS(=O)(=O)c2ccc(C(F)(F)F)cc2Cl)CSC1`: the “hERG current change (%, negative = inhibition) at 10uM” value came to 3.57%. With `O=C(NCCc1nnc2ccc(SCC(=O)N3CCCC3)nn12)c1ccc(F)cc1`, the “hERG current change (%, negative = inhibition) at 10uM” value came out at 1%. As for `CC(=O)Nc1ccc(-c2ccccc2)s1`, the “hERG current change (%, negative = inhibition) at 10uM” value is recorded as 25.4%.

On to `CN1CCC(CN)(N2CCN(c3ccccc3)CC2)CC1`, for which the “hERG current change (%, negative = inhibition) at 10uM” value came out at 8.38%. In the case of `O=[N+]([O-])c1ccc2c(c1)nc1n2CCCCC1` it was -26.9%.

Turning to `O=C(CN1CCCCC1)Nc1ccc(Br)cc1[N+](=O)[O-]`, the “hERG current change (%, negative = inhibition) at 10uM” value came out at 1.74%. As for `COc1cc2cncc(Cc3ccc(Cl)cc3)c2cc1OC.CS(=O)(=O)O`, the “hERG current change (%, negative = inhibition) at 10uM” value is -7.87%. In the case of `O=C(Nc1c(Cl)cccc1Cl)C1CCC1` it was 16.3%; in that of `COc1ccc(NC(=O)COC(=O)COc2cccc3c2OC(C)(C)C3)cc1`, 6.29%; in that of `CC(C)NCC(O)c1cc(O)cc(O)c1.O=S(=O)(O)O` (stereo not shown), 19.2%.
